Out of some 350,000 compounds screened, about 31,000 (8.9%) were called active. The shares of active, inactive and inconclusive entries below differ from those in the screen. Calls come from the whole dose curve; as a rule, active = well fitted inhibition curve with a large enough effect; inconclusive = small, poorly fitted or top-dose-only effect; inactive = no such curve, though single readings can be large or run the other way. Potencies of inconclusive entries are doubtful fits and often do not repeat.
What follows are compounds tested against Histone-lysine N-methyltransferase EHMT2 (Homo sapiens) (UniProt Q96KQ7) (assay: qHTS Assay for Inhibitors of Histone Lysine Methyltransferase G9a). Conditions: G9a H3K9 monomethylation, AlphaScreen, 2 h; activity, negative = inhibition: at 59 µM (top of the series) unless noted.
Chain of UniProt Q96KQ7 (Q96KQ7 whole entry, looked up): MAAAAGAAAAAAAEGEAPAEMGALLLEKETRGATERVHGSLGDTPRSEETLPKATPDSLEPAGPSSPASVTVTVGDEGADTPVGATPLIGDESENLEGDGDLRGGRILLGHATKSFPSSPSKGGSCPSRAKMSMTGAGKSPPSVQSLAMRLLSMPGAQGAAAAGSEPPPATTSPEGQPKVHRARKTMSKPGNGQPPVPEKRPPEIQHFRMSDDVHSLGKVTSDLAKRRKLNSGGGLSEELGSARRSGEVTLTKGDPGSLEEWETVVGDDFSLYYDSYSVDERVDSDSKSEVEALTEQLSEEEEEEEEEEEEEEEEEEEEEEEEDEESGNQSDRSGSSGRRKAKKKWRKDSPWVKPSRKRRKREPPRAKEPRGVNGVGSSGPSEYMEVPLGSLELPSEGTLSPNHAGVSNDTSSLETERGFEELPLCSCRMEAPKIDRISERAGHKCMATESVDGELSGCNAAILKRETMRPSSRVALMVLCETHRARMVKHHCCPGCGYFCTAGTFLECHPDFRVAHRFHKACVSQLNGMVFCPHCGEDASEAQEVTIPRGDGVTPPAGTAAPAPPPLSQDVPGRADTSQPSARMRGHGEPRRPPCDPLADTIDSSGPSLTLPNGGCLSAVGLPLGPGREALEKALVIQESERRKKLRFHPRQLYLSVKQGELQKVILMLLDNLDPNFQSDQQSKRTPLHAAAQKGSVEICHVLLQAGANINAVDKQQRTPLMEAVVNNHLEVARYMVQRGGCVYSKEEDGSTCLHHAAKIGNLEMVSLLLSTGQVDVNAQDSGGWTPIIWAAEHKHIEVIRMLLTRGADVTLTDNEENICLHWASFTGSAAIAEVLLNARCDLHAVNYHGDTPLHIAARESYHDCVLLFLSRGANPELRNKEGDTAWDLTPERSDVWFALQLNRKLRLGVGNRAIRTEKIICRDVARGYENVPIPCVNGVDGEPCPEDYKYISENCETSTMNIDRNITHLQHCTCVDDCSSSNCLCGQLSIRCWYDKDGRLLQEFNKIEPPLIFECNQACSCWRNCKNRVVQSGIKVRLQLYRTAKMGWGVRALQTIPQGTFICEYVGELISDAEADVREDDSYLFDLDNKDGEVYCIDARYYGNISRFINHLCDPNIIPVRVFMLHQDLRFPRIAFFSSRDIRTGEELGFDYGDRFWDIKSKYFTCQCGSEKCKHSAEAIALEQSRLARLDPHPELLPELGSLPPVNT
Outline: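 Compounds were preincubated with 20 nM G9a for 15 min, after which biotinylated H3K9 peptide (500 nM) and SAM (20 uM) started a 2 h room-temperature reaction. Monomethylated product was quantified by antibody-based AlphaScreen chemiluminescence.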
% is set by controls: 0 for no effect and ±100 for the full control effect; potency is the fitted concentration of half-maximal effect; tags give direction and shape of the fitted curve.
Note: nearly all actives have a fitted effect of over 75% in size.

SMILES	Potency	activity, negative = inhibition
CCCCN(C(=O)C1CC(=O)N(c2ccc(CC)cc2)C1)c1c(N)n(CCC)c(=O)[nH]c1=O (stereo not drawn)	inconclusive: 56.2 µM [inhibitor, partial curve, poor fit]	
COc1ccc(CC(=O)N2CCN(c3ccccc3OC)CC2)cc1OC	inconclusive: 70.8 µM [inhibitor, partial curve, poor fit]	
COc1ccc(N2CCN(c3ccc([N+](=O)[O-])cc3Cl)CC2)cc1	active: 7.94 µM	
O=C(NCCCN1CCOCC1)c1ccc(Sc2cccc(Cl)c2)c([N+](=O)[O-])c1	inconclusive: 28.2 µM [inhibitor, single point]	
CS(=O)(=O)N(CC(=O)NCCSCc1ccccc1)c1ccccc1	inactive	
O=C(COC(=O)c1cc2ccccc2cc1O)c1ccccc1	inconclusive: 25.1 µM [inhibitor, partial curve, poor fit]	
CN(C)CCn1cnc2c1c(=O)n(C)c(=O)n2C	inconclusive: 79.4 µM [inhibitor, single point]	
O=C(O)c1ccc(CN2C(=O)c3cccc4c([N+](=O)[O-])ccc(c34)C2=O)cc1	active: 44.7 µM	
CC(C)[C@H](NC(=O)c1ccccc1)C(=O)OCC(=O)c1ccc2c(c1)NC(=O)CO2	active: 14.1 µM	
c1coc(-c2nnc3sc(-c4cccs4)nn23)c1	inconclusive: 3.55 µM [inhibitor, partial curve, poor fit]	
COc1cc(NC(=O)c2cc3sccc3n2C)cc(OC)c1		inconclusive: -101% [inhibitor]
O=C(c1cc([N+](=O)[O-])ccc1N1CCN(S(=O)(=O)c2ccc(Cl)c(Cl)c2)CC1)N1CCOCC1	inconclusive: 89.1 µM [inhibitor, single point]	
COc1ccc(CCNc2oc(-c3ccco3)nc2C#N)cc1	inconclusive: 28.2 µM [inhibitor, single point]	
CCOC(=O)c1ccc2c(c1)C1C=CCC1C(C(=O)OCC)N2 (stereo not drawn)	active: 11.2 µM	
COc1ccc2c(CNCCc3ccccc3C)c(C(=O)O)n(Cc3ccccc3C)c2c1	inactive	
O=C(O)CCN1C(=O)C2C3c4ccccc4C(c4ccccc43)[C@@H]2C1=O (stereo partly drawn)	inconclusive: 89.1 µM [inhibitor, single point]	
CSC1=NCCN1S(=O)(=O)c1ccccc1	inconclusive: 56.2 µM [inhibitor, partial curve, poor fit]	
CCCOC(=O)C1=C(C)NC2=C(C(=O)C(C(=O)OC)C(C)C2)C1c1ccc(N(CC)CC)cc1 (stereo not drawn)	active: 3.55 µM	
CCOc1ccc(N(CC(=O)NCCSc2ccccn2)S(=O)(=O)c2ccc(Cl)cc2)cc1	inconclusive: 89.1 µM [inhibitor, single point]	
CCOc1ccc(NC(=O)c2ccc3[nH]c(C)cc(=O)c3c2)cc1	inconclusive: 39.8 µM [inhibitor, partial curve, poor fit]	
COc1cccc(CNS(=O)(=O)c2ccc3[nH]c4c(c3c2)CCCCC4)c1	inconclusive: 10 µM [inhibitor, partial curve]	
COc1ccccc1NC(=O)N1CCCC(c2nc3c(nnn3Cc3ccc(C)cc3)c(=O)[nH]2)C1 (stereo not drawn)	inconclusive: 44.7 µM [inhibitor, partial curve, poor fit]	

SMILES	Potency	activity, negative = inhibition
COc1ccc(C(=O)c2ccc(N3CCN(C4CC(=O)NC4=O)CC3)cc2)cc1F (stereo not drawn)		inactive: -1.77% [at 2.33 µM]
CN(C)c1ccc(C2SCCN2C(=O)c2ccc([N+](=O)[O-])cc2)cc1 (stereo not drawn)	inconclusive: 20 µM [inhibitor, single point]	
NNC(=O)c1cccc(Cn2cc(Br)c([N+](=O)[O-])n2)c1	active: 39.8 µM	
Cc1ccc(N2CCN(/N=C/c3cccnc3)CC2)cc1	inconclusive: 70.8 µM [inhibitor, single point]	
Cc1c(-c2ccccc2Cl)nc2ccccc2c1C(=O)O	inconclusive: 1 µM [inhibitor, single point]	
COc1ccc(CN(Cc2ccco2)C(=O)COc2ccc(Cl)cc2C)cc1	inactive	
CCOC(=O)c1c(S(=O)(=O)N2CCCC(C(=O)NCc3ccc(F)cc3)C2)c(C)n(CC)c1C (stereo not drawn)	inactive	
CN(C)c1ccc(CN(CC2CCCO2)C(=O)c2cccs2)cc1 (stereo not drawn)	inconclusive: 50.1 µM [inhibitor, partial curve, poor fit]	
CN(C)CCSc1nc(-c2ccccc2)nc2c1CCC2	inconclusive: 39.8 µM [inhibitor, single point]	
COc1cc(C=O)c(Cl)cc1OCC(N)=O	inactive	
CSCCC(NC(=O)c1ccc([N+](=O)[O-])cc1Cl)C(=O)OC(C)C(=O)NCc1ccco1 (stereo not drawn)	inconclusive: 70.8 µM [inhibitor, single point]	
O=C(CSc1nnc(CNC(=O)c2cccs2)o1)NCC1CCCO1 (stereo not drawn)	inconclusive: 79.4 µM [inhibitor, partial curve, poor fit]	
COC(=O)C1C2C=CC3(CN(Cc4ccco4)C(=O)C13)O2 (stereo not drawn)	inconclusive: 22.4 µM [inhibitor, single point]	
COc1cc(-c2nc3ccc4ccccc4c3c3c2CCC3)cc(OC)c1OC		inactive: 28% [at 12.7 µM]
COc1ccc2[nH]c3ccccc3c2c1	inactive	
CCn1c(=O)[nH]c(=O)c2c(N)c(C(=O)c3cc(F)ccc3F)sc21	inactive	
Cc1ccc(NC(=O)CCC(=O)NNC(=O)c2ccccc2Cl)c(C)c1	inconclusive: 15.8 µM [inhibitor, partial curve]	
Cc1ccc(C(=O)CSc2nsc(C)c2C#N)cc1	active: 4.47 µM	
O=C(O)c1ccccc1Nc1ccc2nonc2c1[N+](=O)[O-]	inconclusive: 89.1 µM [inhibitor, single point]	
COc1ccc(NS(=O)(=O)c2ccc(-c3cnc(C4CC4)o3)cc2)cc1OC	inconclusive: 35.5 µM [inhibitor, full curve]	
CNc1oc(Cc2ccccc2)nc1S(=O)(=O)c1ccccc1	inconclusive: 3.55 µM [inhibitor, single point]	

— PubChem BioAssay AID504332 (National Center for Advancing Translational Sciences (NCATS), 2011)
